Whole data set: some 110,000 compounds, median “z-score” near -0.1, cut for the highest 2% near 2. Some of the results follow.
What follows are molecules tested against Metabotropic glutamate receptor 8 (Rattus norvegicus) (UniProt P70579) (assay: mGluR8 Gi/Go-coupled signaling modulation – cell-based, rat, thallium flux, HTS, primary screen (AID 488969)). Details: HEK293 rat mGluR8, GIRK (G protein-gated inwardly rectifying potassium channel) thallium flux, FluoZin2; at 10 µM; stronger effect = higher value; submaximal glutamate (EC20) added with thallium.
Sequence of UniProt P70579 (P70579 whole entry, looked up): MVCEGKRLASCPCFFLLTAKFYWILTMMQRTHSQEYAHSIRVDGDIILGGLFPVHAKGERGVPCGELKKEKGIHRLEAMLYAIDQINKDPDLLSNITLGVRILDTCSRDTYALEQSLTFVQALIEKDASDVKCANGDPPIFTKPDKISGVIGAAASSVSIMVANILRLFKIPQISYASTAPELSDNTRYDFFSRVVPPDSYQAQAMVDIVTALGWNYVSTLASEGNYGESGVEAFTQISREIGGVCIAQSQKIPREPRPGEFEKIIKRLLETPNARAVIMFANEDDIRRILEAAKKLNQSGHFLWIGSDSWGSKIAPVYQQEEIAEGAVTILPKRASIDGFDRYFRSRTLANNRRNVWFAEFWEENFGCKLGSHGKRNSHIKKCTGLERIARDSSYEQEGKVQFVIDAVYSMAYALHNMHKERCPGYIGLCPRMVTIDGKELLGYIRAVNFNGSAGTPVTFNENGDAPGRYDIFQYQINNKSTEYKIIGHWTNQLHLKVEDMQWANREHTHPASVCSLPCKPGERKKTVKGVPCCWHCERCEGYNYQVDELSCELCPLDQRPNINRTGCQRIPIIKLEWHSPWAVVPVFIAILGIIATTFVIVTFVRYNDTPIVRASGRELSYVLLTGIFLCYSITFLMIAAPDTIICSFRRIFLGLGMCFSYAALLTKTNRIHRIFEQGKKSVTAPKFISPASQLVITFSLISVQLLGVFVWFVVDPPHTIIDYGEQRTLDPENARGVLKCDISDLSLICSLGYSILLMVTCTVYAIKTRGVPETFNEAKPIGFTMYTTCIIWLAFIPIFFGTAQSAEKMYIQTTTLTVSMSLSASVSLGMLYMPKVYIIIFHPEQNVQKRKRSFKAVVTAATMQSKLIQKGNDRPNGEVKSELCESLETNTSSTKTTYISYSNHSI

SMILES | z-score
Nc1cc(Cl)ccc1C(=O)OCC(=O)NC(=O)NCc1ccccc1 | -0.236
O=C1c2ccccc2C(=O)N1CCCSc1nc2ccccc2o1 | 0.00917
CC1=NN(c2ccccc2)C(=O)/C1=C/c1ccc[nH]1 | -0.279
O=C(CSc1nnc(CN2CCOCC2)n1-c1ccccc1)Nc1ccc(Cl)cc1 | -0.936
CCOc1ccc(C(=O)NCC(=O)OCc2ccc(F)cc2Cl)cc1 | -0.0774
CCn1c(SCC(=O)O)nc2sc3c(c2c1=O)CCC3 | -1.62
Cc1ccc(N=C2SC(C(=O)Nc3ccc(OC(F)(F)F)cc3)C(N)=C2C(=O)Nc2c(C)cc(C)cc2C)cc1 (stereo not given) | 0.572
Cc1cc2c(cc1C)CSC(c1ccc(O)cc1)SC2 | -0.639
CC1CCCN(C(=O)C(Cc2ccccc2)n2cccc2)C1 (stereo not given) | -0.166
Cc1ccc(C(=O)NCC(=O)NCC(=O)OCC(=O)c2ccc(Br)cc2)cc1 | 0.0108
CCc1ccccc1N1CC23C=CC(O2)C(C(=O)OCC(C)C)C3C1=O (stereo not given) | -0.106
CCc1nnc(NC(=O)CSc2nnc(-c3cccnc3)n2CC)s1 | -0.491
Cc1[nH]n2c(=O)c(C#N)c(-c3ccccc3)nc2c1-c1ccccc1 | -0.136
CCc1nc2oc3cc(OC)ccc3c(=O)c2c(=O)n1-c1ccccc1 | 0.0834
NC(=O)c1sc2cc(C(F)(F)F)cnc2c1-c1cccs1 | -0.135
CCOc1ccc(/C=N/n2c(SC)nnc(C(C)(C)C)c2=O)cc1 | 0.151
CCC(c1nnnn1CCc1ccccc1)N1CCN(c2ccc(OC)cc2)CC1 (stereo not given) | -0.0951
O=C(NCCN1CCc2ccccc2C1)C1CCN(S(=O)(=O)N2CCCCC2)CC1 | 0.147
Cc1cc2oc(=O)cc(COC(=O)c3n[nH]c4ccccc34)c2cc1C | -0.06
CC(=O)c1cccc(NC(=O)/C(=C\c2ccco2)NC(=O)c2cccs2)c1 | 0.0614
CCOc1cc(/C=N/NC(=O)CN2CCOCC2)ccc1OCc1ccc(Cl)cc1 | -0.0847
CCOc1ccc(N2CC(C(=O)NCCc3ccc(OC)c(OC)c3)CC2=O)cc1 (stereo not given) | -1.78
COCCOC(=O)C(C#N)c1nc2ccccc2nc1N1CCCC1 (stereo not given) | -0.268
COc1ccc(NC(=O)Cn2c(=O)n(CC(=O)NCc3ccco3)c(=O)c3ccccc32)cc1 | 0.213

SMILES | z-score
Cc1c(C(=O)NC(C)CCc2ccccc2)cccc1[N+](=O)[O-] (stereo not given) | -0.112
COCCNc1nnc(SCC(=O)c2ccc3c(c2)OCO3)s1 | -0.106
C=C(C)COc1ccc(-c2n[nH]c(C)c2-c2ccc(OC)cc2)c(O)c1 | 0.0936
O=C(O)c1ccc2c(c1)N(Cc1cccc(F)c1)C(=O)CS2 | -0.288
Cc1ccc(-c2nc(CS(=O)CC(=O)NCc3ccccn3)c(C)o2)cc1 (stereo not given) | -0.248
Cc1cc2c(C)ccc(C)c2nc1SCC(=O)c1cccs1 | -0.0764
O=C(Nc1ncccc1O)c1cccc(S(=O)(=O)N2CCc3ccccc32)c1 | 1.16
O=C(COc1ccc(Cl)cc1)N/N=C/CCc1ccccc1 | -0.494
COCCn1c(N)c(C(=O)Nc2sc3c(c2C(=O)OC)CCCC3)c2nc3ccccc3nc21 | 0.711
Cn1ccnc1C(=O)c1cccc([N+](=O)[O-])c1 | 0.0533
O=C(N/N=C/c1cccs1)c1cc(C2CC2)nc2ccccc12 | 1.02
CC(C)N1CC(C(=O)Nc2ccc(Br)c(Cl)c2)CC1=O (stereo not given) | 0.0942
Cc1ccc2nc(-c3ccc(NC(=O)Cc4cccs4)cc3)[nH]c2c1 | -0.431
CCOc1cc(C(=O)Nc2ccc(N3CCN(S(C)(=O)=O)CC3)cc2)cc(OCC)c1OCC | -0.182
c1ccc(-n2ncc3c2ncn2c(C4CCCCC4)nnc32)cc1 | 0.0535
Cc1c(NC(=O)CSc2ccccc2C(=O)Nc2cccnc2)c(=O)n(-c2ccccc2)n1C | 2.06
Cc1cc(C)c2[nH]c(=O)c(CN(Cc3ccco3)C(=O)c3cccs3)cc2c1 | 1.44
N#Cc1ccsc1NC(=O)COC(=O)c1ccc2ccccc2c1 | -0.182
CSc1ccccc1C(=O)Nc1ccc2c(c1)OCCO2 | -0.715
COCCn1c(SCC(=O)c2ccccc2)nc2c(c1=O)SC(C)C2 (stereo not given) | -1.84
COc1ccc(Cc2nnc(NC(=O)CSc3ccccc3)s2)cc1 | -0.0797
CC(C)NCCOc1cccc(Br)c1 | 0.152
COc1ccc(NC2=CC(=O)CC(C)(C)C2)cc1OC | 0.0586
Nn1c(SC/C=C/c2ccccc2)nnc1-c1ccco1 | -0.117

SMILES | z-score
CCOc1ccc(C(=O)Nc2cccc(-c3cc4ccccc4oc3=O)c2)cc1[N+](=O)[O-] | 0.048
Cc1ccc2cc(CN(C(=O)C3CCCO3)C3CCCCC3)c(=O)[nH]c2c1 (stereo not given) | 0.59
C=CCC(NCCCO)c1cccc(OC)c1OC (stereo not given) | -0.0832
CCOP(=O)(c1ccc(N(C)C)cc1)C(O)c1c(Cl)cccc1Cl (stereo not given) | 0.373
CC(/C=C/c1ccco1)=N\NC(=O)c1cccc(Cl)c1 | -1.27
CC(C)OC(=O)C1C(=O)CC(C)(O)C(C(=O)OC(C)C)C1c1ccc(F)cc1 (stereo not given) | 0.157
COCCCNC(=O)C1CC(=O)N(CCc2ccc(OC)c(OC)c2)C1 (stereo not given) | -0.12
CCC(C)NC(=O)COC(=O)c1csc2c1CCCC2 (stereo not given) | -0.0704
O=C(Nc1ccccc1C(=O)O)c1cccc(F)c1 | -0.262
Cc1oc(C(=O)Nc2ccc(C(=O)O)cc2)cc1COc1ccccc1 | -0.176
Cc1cc(=O)n2c3ccccc3n(CC(O)CN3CCC(C)CC3)c2c1C#N (stereo not given) | -0.418
Cc1ccc(NS(=O)(=O)c2cccc(C(=O)O)c2)cc1S(=O)(=O)N1CCCCC1 | -0.132
Cc1ccc(NC(=O)COc2ccccc2C(=O)Nc2ccccc2)cc1Cl | -0.245
O=C(O)c1ccc(CS(=O)(=O)c2cccc(C(F)(F)F)c2)o1 | -0.171
C=CCn1c(Cc2ccc(OC)cc2)nnc1SCC(N)=O | -0.215
CN1CCc2nc(NC(=O)c3cccc(S(=O)(=O)N4CCc5ccccc54)c3)sc2C1 | 0.344
COc1cccc(NC(=O)CSc2nc(C)cs2)c1 | 0.237
S=C(Nc1ccc(Cl)cc1)N1CCCC1 | 0.113
O=C(NCc1ccco1)C1CCN(C(=O)Cc2ccccc2)CC1 | -0.049
Cc1ccc(-c2nc3ccccc3[nH]2)cc1NC(=S)NC(=O)c1ccccc1Br | 0.208
CCc1cccc2c(SC(C)C(=O)NCC3CCCO3)nc(-c3ccccc3)nc12 (stereo not given) | -0.603
Cc1cc(NC(=O)C2CC(=O)N(c3ccccc3)C2)no1 (stereo not given) | -0.238

Reference: PubChem BioAssay AID488969 (Vanderbilt High Throughput Screening Facility, 2010)
